Hit rate of the full screen: of about 48,000 compounds, about 120 (0.25%) were called active. Not shown: some 4% with an inconclusive outcome. Calls follow the shape of the dose curve; as a rule, active = well fitted activation curve with a large enough effect; inconclusive = small, poorly fitted or top-dose-only effect, or another doubt; inactive = no such curve, though single readings can be large or run the other way. The list shows a part of the results.
Test: Primary qHTS for Identification of Small Molecule Activators of Huntingtin-Antisense Promoter Activity; also: nearly all actives have a fitted effect of over 55% in size
Conditions: HEK293 HTT-AS promoter firefly luciferase reporter, 24 h; series mostly up to 57.5 µM; activity change, positive = activation: at the top concentration
In short: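 HEK293 Fluc reporter, 2,500 cells/well, 24 h pre-culture; cpds up to 57.5 uM final, 24 h 37 degrees C; Dual-Glo, 10 min RT; normalized vehicle = 0%, zero RLU = -100%.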
For `O=C(NCc1cccc(Cl)c1)C1CCN(c2nn3cc(-c4ccc(F)cc4)nc3s2)CC1`, the “activity change, positive = activation” value was inactive: 0.483%.
In the case of `COc1cc(NC(=O)Cn2c(=O)n(-c3ccccc3)c(=O)c3c4c(sc32)CCCC4)cc(OC)c1`, the “activity change, positive = activation” value is reported as inactive: -6.56%.
For `Cc1ccccc1OCc1ccc(-c2nc(C#N)c(N3CCCCC3)o2)o1`, the “activity change, positive = activation” value was inactive: -47.8%.
In the case of `CCCCNC(=O)c1cnn2c(C)c(Cc3c(C)cc(C)cc3C)c(C)nc12`, the “activity change, positive = activation” value is reported as inactive: -59.1%.
With `COc1ccc(CC(=O)NCC(c2ccc(N(C)C)cc2)N2CCOCC2)cc1OC` (configuration not stated) the “activity change, positive = activation” value was inactive: -12.9%.
In the case of `CCOC(=O)c1cc2c(=O)n3ccccc3nc2n(Cc2ccco2)c1=NC(=O)c1ccc(OC)cc1`, the “activity change, positive = activation” value is reported as inactive: -17.1%.
With `CSc1ccc(CNC(=O)c2ccc3c(c2)N(C)C(=O)C2CCCCN32)cc1` (configuration not stated) the “activity change, positive = activation” value was inactive: 5.33%.
With `CC(C)COc1ccc(C(=O)Nc2scc(-c3ccc(Br)cc3)c2C(=O)OC(C)C)cc1` the “activity change, positive = activation” value was inactive: -9.6%.
For `Cc1nc2cccnc2n1C1CCN(C(=O)Nc2ccccc2C(F)(F)F)CC1`, the “activity change, positive = activation” value was inactive: 0.232%.
For `CNS(=O)(=O)c1cn(CC(=O)N2CCN(c3ccc(Cl)cc3)CC2)cc1S(=O)(=O)NC`, the “activity change, positive = activation” value was inactive: -9.38%.
With `COc1ccc(CCN(C)CCCN2CCc3cc(OC)c(OC)cc3CC2=O)cc1OC` the “activity change, positive = activation” value was inactive: -8.98%.
With `CCOc1ccc(-n2nc(CO)c(C(=O)NCC(c3ccccc3)c3ccccc3)n2)cc1` the “activity change, positive = activation” value was inactive: -0.671%.
For `O=C(NCc1ccccc1)c1cccc(N2CCCS2(=O)=O)c1`, the “activity change, positive = activation” value was inactive: -7.37%.
In the case of `O=c1ccc2cc(S(=O)(=O)NCc3ccc(Cl)cc3)ccc2[nH]1`, the “activity change, positive = activation” value is reported as inactive: -14.1%.
In the case of `c1ccc2[nH]ccc2c1`, the “activity change, positive = activation” value is reported as inactive: -5.48%.
For `CCOc1ccccc1NC(=O)Cn1c(=O)n(CCCCC(=O)NCCCOC)c(=O)c2ccccc21`, the “activity change, positive = activation” value was inactive: -14.6%.
For `Cc1ccc2[nH]c3c(=O)n(CC(=O)NCCCN4CCN(c5ccc(F)cc5)CC4)ncc3c2c1`, the “activity change, positive = activation” value was inactive: 0.641%.
For `CCc1ccccc1N(C)C(=O)c1cc2c(Cl)nc3ccc(C)cc3c2s1`, the “activity change, positive = activation” value was inactive: -2.19%.
In the case of `CCc1ccc(NC(=O)Cn2nnc(C(=O)NCCc3ccccc3)c2N)cc1`, the “activity change, positive = activation” value is reported as inactive: 1.52%.
In the case of `O=C(NCc1cccc(F)c1)C1CCN(c2nn3cc(-c4ccc(F)cc4)nc3s2)CC1`, the “activity change, positive = activation” value is reported as inactive: 31.6%.
In the case of `N#Cc1ccccc1Cn1c(=O)n(-c2ccccc2)c(=O)c2c3c(sc21)CCC3`, the “activity change, positive = activation” value is reported as inactive: 2.16%.
For `CC1CCN(S(=O)(=O)c2ccc3c(c2)oc(=O)n3CC(=O)N2CCCCC2)CC1`, the “activity change, positive = activation” value was inactive: -21%.
In the case of `Cc1ccccc1CNCCSc1nnnn1C`, the “activity change, positive = activation” value is reported as inactive: -2.8%.
With `Cc1cccc(C)c1NC(=O)c1nc(SC(C)C)ncc1Cl` the “activity change, positive = activation” value was inactive: -40%.
For `O=C(Nc1ccc(O)c(-c2nc3ccccc3o2)c1)c1ccc(-c2cccc(Cl)c2)o1`, the “activity change, positive = activation” value was inactive: 4.67%.
In the case of `COCCCNC(=O)C1CCN(C(=O)c2ccc(-n3ccc4ccccc43)s2)CC1`, the “activity change, positive = activation” value is reported as inactive: 18%.
With `Cc1cc(C)cc(N(CC(=O)Nc2ccc(C)cc2Cl)S(=O)(=O)c2c(C)[nH]c(=O)[nH]c2=O)c1` the activity change, positive = activation was inactive: 4.61% [at 11.5 µM, percent change from vehicle, -100% = no light].
In the case of `CCCSc1ncc(Cl)c(C(=O)Nc2sc3c(c2C(N)=O)CCCC3)n1`, the “activity change, positive = activation” value is reported as inactive: -10.2%.
With `CCN(CC)C(=O)c1sc2c(c1C)c(=O)n(Cc1ccccc1)c(=O)n2CC(=O)Nc1ccc(OC)cc1` the “activity change, positive = activation” value was inactive: -10.5%.
For `O=C(OCC(O)CO)c1ccccc1Nc1ccnc2cc(Cl)ccc12` (configuration not stated), the “activity change, positive = activation” value was inactive: -17.4%.
For `COC(=O)c1ccc(-n2nnc(-c3nsc(NC(=O)c4ccc(Cl)cc4)n3)c2C)cc1`, the “activity change, positive = activation” value was inactive: -10.4%.
For `O=c1c(NCCc2ccc(Cl)cc2)nccn1-c1ccccc1`, the “activity change, positive = activation” value was inactive: -5.66%.
For `COc1ccccc1NC(=O)CCNS(=O)(=O)c1ccc2c(c1)CCN2C(=O)C1CC1`, the “activity change, positive = activation” value was inactive: -15.6%.
In the case of `COc1ccc(OC)c(CCNC(=O)c2cc3cccc4c3n2CCS4)c1`, the “activity change, positive = activation” value is reported as inactive: -14%.
In the case of `Cc1cc2n(n1)CCCN2C(=O)Nc1ccc(C)c(Cl)c1`, the “activity change, positive = activation” value is reported as inactive: -3.94%.
For `Cc1ccc(C)c(N2CCN(S(=O)(=O)c3ccc(F)c(C(=O)Nc4ccc(Cl)cc4Cl)c3)CC2)c1`, the “activity change, positive = activation” value was inactive: -12.4%.
With `CCN(Cc1ccccc1)C(=O)CCS(=O)(=O)c1cc(Br)cc2c1N(C(=O)C1CC1)CC2` the “activity change, positive = activation” value was inactive: -15.3%.
With `CN(c1ccccc1)S(=O)(=O)c1nnc(NC(=O)c2cccs2)s1` the “activity change, positive = activation” value was inactive: -9.13%.
For `CCOC(=O)c1c(C)oc2ccc(N(C(=O)c3ccncc3)S(=O)(=O)c3ccc(F)cc3)cc12`, the “activity change, positive = activation” value was inactive: -34.3%.
For `CC(=O)Nc1ccc(NC(=O)CN2C(=O)CCc3cc(S(=O)(=O)N4CCCCC4)ccc32)cc1`, the “activity change, positive = activation” value was inactive: -8.12%.
In the case of `O=C(Cn1cc(SCc2ccc(Cl)cc2)c2ccccc21)N1CCCC1`, the “activity change, positive = activation” value is reported as inactive: -6.12%.
In the case of `O=C(Nc1ccc(F)cc1)Nc1nnc(SCC(=O)N2CCCCC2)s1`, the “activity change, positive = activation” value is reported as inactive: -12.1%.
With `CC(C(=O)O)c1ccc(-c2ccccc2)c(F)c1` (configuration not stated) the “activity change, positive = activation” value was inactive: -37.3%.
In the case of `Cc1cccc(CNC(=O)CN2CC(C)Sc3ccccc32)c1` (configuration not stated), the “activity change, positive = activation” value is reported as inactive: 8.53%.
For `COc1ccc(C)cc1NS(=O)(=O)c1cc(Br)cc2c1N(C(C)=O)C(C)C2` (configuration not stated), the “activity change, positive = activation” value was inactive: -34%.
For `Cc1c(C(=O)N(Cc2cccc(Cl)c2)Cc2ccco2)oc2ccccc12`, the “activity change, positive = activation” value was inactive: -17.8%.
For `Cc1cc(O)c2c(c1)C(=O)c1cccc(O)c1C2=O`, the “activity change, positive = activation” value was inactive: -6.54%.
